This note sets out measurements from publication PMC10726135.

Some of the results follow. At the low end of the ranking the order means little. Measured with an extract: partners may take part in the binding.

The target of the experiment is T1, HNF4alpha8 (COS-7 nuclear extract) (UniProt P41235-5).
T1 sequence: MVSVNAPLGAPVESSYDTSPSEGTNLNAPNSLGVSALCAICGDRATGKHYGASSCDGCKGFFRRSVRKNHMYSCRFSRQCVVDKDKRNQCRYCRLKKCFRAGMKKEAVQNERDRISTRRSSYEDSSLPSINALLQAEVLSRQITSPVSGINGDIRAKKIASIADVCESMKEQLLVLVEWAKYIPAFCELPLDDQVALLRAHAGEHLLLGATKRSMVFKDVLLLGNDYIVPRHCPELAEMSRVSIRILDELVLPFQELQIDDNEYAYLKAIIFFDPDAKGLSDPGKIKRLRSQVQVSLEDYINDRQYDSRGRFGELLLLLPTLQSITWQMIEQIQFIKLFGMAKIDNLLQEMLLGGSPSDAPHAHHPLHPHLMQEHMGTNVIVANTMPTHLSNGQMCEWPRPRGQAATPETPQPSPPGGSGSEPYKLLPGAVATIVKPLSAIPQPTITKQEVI
As to the kind of experiment: protein-binding microarray. Particulars: COS-7 nuclear extract on double-stranded Agilent 4x180k PBM; binding buffer, salt, pH and temperature not given; high values mean tight binding; double strand, one strand shown; sequences stand for … in …GCCTAGGGAGATTAGAGTATCGGTCGA
Regarding AGTTCCCAGCCCTTCACCAGAGCCGTCTGG, the binding signal (log2 normalized intensity) was -1.22. The same measure for TCCCAATTTATCTTTCCAGATTGTTCTATT: 0.618; for ACACTTAGAAAATGCCCTCAATCAAAGTGA: 0.00257.

Turning to GCTGACATGCTCTTGGAATGTTGAACCTTT, the binding signal (log2 normalized intensity) turned out to be 4.87. For the sequence GGGTGGGCCTGGGGGGAGACAACTGCAACA, the binding signal (log2 normalized intensity) is -1.42. The same measure for TGATCAGAAAAGAAAGTGAGGAATGCAACC: -1.27; for ACAGGGCTTGGGGTGGGGTTGGAGTCCAGA: 2.01; for CTGACACTGTCCCAGCTGAGATTCAGAATA: -1.35. For TGTGTGCACAAGAGGGTGGGAGTTCAGGGG the value was -0.277; for GTAGTTGCAAATATTGCAGTGTAGATTAAA, 0.731.

As to TTTTATGTGCTCCATCAGTGGTAAACAGAA, the binding signal (log2 normalized intensity) turned out to be 1.19. The same measure for TAAAATGAGACTTCCCAGCTGCTGGTCAAA: 0.0486; for TATGGCTTATACTTGAGGTATGATGCATCC: 1.31. The same measure for TGCAAATATTGCAGTGTAGATTAAATCCTC: -0.842; for CAATTGGGAATGTCACAGGGGCCATGCAGG: -1.03. Consider AGGAGAAGAATGAAAGCCAAGGCAGATATG, for which the binding signal (log2 normalized intensity) is -1.42. The same measure for GGAAATAATGCGACTTGCCTTGTGTACTCT: 2.28. For CTCCCGGGGAGGTCAACCAGGGAAATTACC the value was -1.24. For the sequence CAGGTAGAGAGCAATCATGCACCTGCGGAT, the binding signal (log2 normalized intensity) is -1.42.

As for GCTCTTTAGGAATGCAACTCTAACCTTTAC, the binding signal (log2 normalized intensity) was 3.59. Regarding CTGGGGAGACTCTCTCTCCTCTCCAGCCCA, the binding signal (log2 normalized intensity) is 0.89. The same measure for GCAAAGGTGAGGGGAGCGTAAAACCACTGG: -1.32. For AGGCCGTTCTAGCCCTTTTTCCGGCTGAAT the value was -1.42; for TCTCCTGGAATGCAAGACCTCAGCCCTCAG, -1.39; for GCCTCGGGCCTGCGAGGTTACAGGGTTCAA, 2.84.

In the case of CGCCGGAACTGGTCCGGCCCGACTCACGAC, the binding signal (log2 normalized intensity) is -1.26. The same measure for GACAGCCAGCTGGTAAATAAAGGAACTTAC: -1.4. The same measure for TCAGACTGAGGATGGGCCAAGGTTCAGAGA: 1.97.

On to CTATGGACCTGCAAACAGCACTCTCTGATT, for which the binding signal (log2 normalized intensity) was -1.17. For AACTGAGTATTTAGCTTCCTCCCTTGGAAT the value was 0.0858; for TCGGCGCTCCGCTTACTCGGCCTGGACCCC, 3.69. The same measure for TGCCCTCACAGGTTCCAGCATGGACTTCAC: 3.32; for TTGACCCTGCGATAAGTAGATACCAAATAG: 1.36; for AGAGGCCTTATCTGGCCGCCTAATCCCCTG: 1.27. For CCTAAGTCTGCCGTTTTCTTATTCTGTCAC the value was 1.43; for CTCCATGCTGTAGATTGTGGAATGTCTTCT, 1.15; for TTGGGACCTGAGAACAAACAATGGTTTGGG, -0.75.

Turning to AAACTCTCAAGCTCTCCTCTTATCAGGCAG, the binding signal (log2 normalized intensity) is -1.31. The same measure for AGTGTAAAGAGCTTTTGGGCAGAGACTATG: -1.2. The same measure for AATTAAGGAAGATGGTGCAAGTGGCTATGG: -0.192; for AATGCCTAAACCAGGATCCAGTCCTCACCC: -1.28. The same measure for CTTTAATAGGCTGGGATGATTTCAGCTTAT: -0.555; for GAAAAGTAATGAAAGGAAATCATTCCAGAA: -1.09; for TATTCATTCAACTTTGACTTCCATTGTGTT: 2.08. TCGCCTAGGCCTTTCCTGGGCCTTAAAGCA: the binding signal (log2 normalized intensity) is -1.25. The same measure for ACAACAGCCTTGCAGATAAGCCACGAGCCT: -1.33; for TCTCTGGTCAAAGGGTAAAGATTATGAACT: 2.92. For GAAAACAAATAGAGCAGACTATTATCAGCC the value was -1.23. The same measure for TCATCTGAGTAGTGTACGTTGTACCCCACA: 3.97; for ACATTGTAACCACCTCTCTGGGTGGTTCGA: 0.0105; for AGCAACAGACTGCTGTGTTACTAGAGCCAA: -1.33.

As for GATTGGACTTTGGCCTGTGAATCCACATTC, the binding signal (log2 normalized intensity) is 6.47. For ACAGGATGCCTGAGTAATTACTATAAATGC the value was -0.245; for CACCTGTGTCAACATGGACTTTGTTGTTTG, 4.99. For GAACCGTCTGCCCAGAGCGGCAGCGCCTCC the value was -1.15; for GTGTCAATTCCAAAGTTCAAGTAGAGCTTC, 4.15; for TAAGACTAACCTTTGACCATCCACGGATGC, 5.5. The same measure for CCAACCTGGCCTGTTTGATCTGGTTTTTGT: 1.72; for GGATAATGATAAAGAGATTGGACTTTGGCC: 9.44; for TACTGAAAAGTCTACCTTTGGCCTGGGGAT: 2.46.

On to TCCACAGTAAAACATACTGGTGGTTTCACA, for which the binding signal (log2 normalized intensity) was -1.14. CACCTTCAGTCACACTGTTTGCGCAAACTA: the binding signal (log2 normalized intensity) is -0.902. The same measure for ATCTACAGATCTGGAGCCAGCAAGGACTTT: 4.18.

For the sequence CAAACTCACCTGGAGAAGCAGAAGCTGCAC, the binding signal (log2 normalized intensity) is -1.32. In the case of CCCAGCATGTTTGGGTCACAATCACAAATG, the binding signal (log2 normalized intensity) amounted to 0.56.

In the case of TGCAGAAAAACAGGTTCTGCAACACTTTCT, the binding signal (log2 normalized intensity) is -1.18. For TATATTCATAACACTTGTATGACCTTTGTT the value was 6.2; for GCCACAACTGAGTATTTAGCTTCCTCCCTT, 0.903; for GTGCTTAGCTATTTCGTTGAATGCTGAACT, 1.51. CCTTGACCTCCTGGGCCCAAGTGCTCCTCC: the binding signal (log2 normalized intensity) was 0.494. With AAACGCAATTGCCCTACAGCTCCTGAGTCC, the binding signal (log2 normalized intensity) turned out to be 0.968. For GAGGGAAAGGTCAAGAGAATTACAAACAGC the value was -1.18.
